Laboratory results published in US20090099029.

target: Bovine, dephosphorylated, Myelin Basic Protein (MBP) (UniProt P02687)
UniProt P02687, sequence (P02687 whole entry): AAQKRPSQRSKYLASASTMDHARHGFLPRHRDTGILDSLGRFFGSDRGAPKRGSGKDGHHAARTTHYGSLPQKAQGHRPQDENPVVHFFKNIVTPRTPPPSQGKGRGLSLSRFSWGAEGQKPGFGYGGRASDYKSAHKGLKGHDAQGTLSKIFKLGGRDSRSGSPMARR

| Substance | MBP Kinase Activity |
| --- | --- |
| FGFR1 (sequence not shown) | Strong |
| KDR(VEGFR2) (sequence not shown) | Strong |
| RPS6KA5(MSK1) (sequence not shown) | Weak |
